The values below come from paper PMC4336329 (PLoS ONE, 2015).

Out of some 310,000 compounds screened, about 2,200 (0.71%) showed an effect of 50% or more. The effect is printed as a negative number. This is one part of the list.

Chain of human ether-à-go-go-related gene (hERG) potassium channel (Q12809 whole entry, looked up): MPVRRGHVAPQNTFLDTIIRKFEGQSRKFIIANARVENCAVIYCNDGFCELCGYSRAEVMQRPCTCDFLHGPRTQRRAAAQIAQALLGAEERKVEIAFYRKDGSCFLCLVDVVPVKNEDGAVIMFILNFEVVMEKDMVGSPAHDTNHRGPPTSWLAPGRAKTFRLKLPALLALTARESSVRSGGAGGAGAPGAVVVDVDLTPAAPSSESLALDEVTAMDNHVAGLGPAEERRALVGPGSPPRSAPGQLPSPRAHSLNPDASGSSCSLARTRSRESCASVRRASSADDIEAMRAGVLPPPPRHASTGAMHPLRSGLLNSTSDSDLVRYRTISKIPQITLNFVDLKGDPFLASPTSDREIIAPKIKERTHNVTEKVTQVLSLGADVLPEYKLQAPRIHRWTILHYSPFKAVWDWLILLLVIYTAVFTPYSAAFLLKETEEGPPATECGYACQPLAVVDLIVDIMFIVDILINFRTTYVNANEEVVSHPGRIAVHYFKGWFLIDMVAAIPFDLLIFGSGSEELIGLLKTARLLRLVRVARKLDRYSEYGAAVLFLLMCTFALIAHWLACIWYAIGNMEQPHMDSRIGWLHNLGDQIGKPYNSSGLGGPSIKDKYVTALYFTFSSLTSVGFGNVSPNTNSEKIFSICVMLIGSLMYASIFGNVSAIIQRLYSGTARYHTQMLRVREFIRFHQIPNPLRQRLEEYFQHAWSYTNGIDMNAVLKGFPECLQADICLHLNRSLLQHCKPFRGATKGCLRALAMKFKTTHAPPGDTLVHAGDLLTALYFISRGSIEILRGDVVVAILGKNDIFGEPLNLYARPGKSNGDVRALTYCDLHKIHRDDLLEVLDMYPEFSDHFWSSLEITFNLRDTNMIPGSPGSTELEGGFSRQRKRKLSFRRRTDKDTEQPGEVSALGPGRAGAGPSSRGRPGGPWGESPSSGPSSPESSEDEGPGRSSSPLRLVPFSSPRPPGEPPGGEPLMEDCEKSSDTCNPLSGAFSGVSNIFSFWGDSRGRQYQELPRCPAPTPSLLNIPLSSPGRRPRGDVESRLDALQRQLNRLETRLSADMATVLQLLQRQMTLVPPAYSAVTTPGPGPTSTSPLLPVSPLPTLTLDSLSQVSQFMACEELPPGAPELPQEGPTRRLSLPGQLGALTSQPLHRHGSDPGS

This assay has as its target human ether-à-go-go-related gene (hERG) potassium channel (human, UniProt Q12809). Kind of assay: primary screen, population patch clamp on CHO cells stably expressing hERG.
With `CC(C)(C)OC(=O)C(C)(C)Sc1nnc(N)s1`, the “hERG current change (%, negative = inhibition) at 1uM” value was 9.84%.
Take `O=C(Nc1ccc(F)cc1)c1sccc1SCc1cccc(C(F)(F)F)c1`: the “hERG current change (%, negative = inhibition) at 1uM” value is recorded as -0.0861%.
The value for `Cc1cc(C)c2cc(CN(CCN3CCCC3)C(=O)Nc3ccc(F)cc3)c(=O)[nH]c2c1` was -57.9%; that for `O=C(CNC1CCCCC1)Nc1cc(S(=O)(=O)N2CCOCC2)ccc1Cl` was 15.2%.
The value for `CC(=O)c1cc(Cl)ccc1OCc1cccc(S(=O)(=O)N2CCOCC2)c1` was -34.6%.
The value for `COc1ccc2c(c1)-c1ccccc1S(=O)(=O)N2C(C)=O` was 5.27%.
Regarding `c1ccc(C2=Nn3c(nnc3-c3ccncc3)SC2)cc1`, the “hERG current change (%, negative = inhibition) at 1uM” value was 8.34%.
The value for `CCOC(=O)C1CCN(C(=O)CCn2c(=O)c3cccn3c3cccnc32)CC1` was -8.62%; that for `COc1ccc(Nc2ccc(N3C(=O)CCCC3=O)cc2[N+](=O)[O-])c(OC)c1` was 9.05%; that for `Cc1cc(Nc2ccccc2)n(C(=O)c2ccc(Cl)cc2)n1` was 18.2%.
The value for `CCOc1ccc(CSCCNC(=S)Nc2ccc(OC)cc2)cc1` was 6.24%.
Take `Cc1cc(CNC(=O)CC2C(=O)NCCN2Cc2ccc(-c3ccccc3)cc2)nn1C` (stereo not drawn): the “hERG current change (%, negative = inhibition) at 1uM” value is 11%.
Turning to `O=C(Cn1cc[n+](CC(=O)c2ccccc2)c1)c1ccccc1.[Br-]`, the “hERG current change (%, negative = inhibition) at 1uM” value was 4.99%.
For `CCSc1nnc(-c2ccccc2NC(=O)CC)c(=O)[nH]1` the value was 21.7%.
Take `COc1ccc(CNC(=O)CN(Cc2ccc(F)cc2)C(=O)c2csnn2)cc1`: the “hERG current change (%, negative = inhibition) at 1uM” value was -21.6%.
Turning to `O=C(NCC1CCCO1)C(c1cccs1)N(Cc1ccccc1Cl)C(=O)c1ccc(-c2ccccc2)[nH]1` (stereo not drawn), the “hERG current change (%, negative = inhibition) at 1uM” value is reported as 20.4%.
The value for `O=C(c1ccc(Cl)cc1)N1CCC(C(=O)N2CCCc3ccccc32)CC1` was -46.6%.
For `CCOc1ccc(NC(=O)Cc2ccccc2)cc1` the value was 7.84%; for `COC(=O)C1=CN(CCCN2CCCC2=O)C=C(C(=O)OC)C1c1cccs1`, 8.6%.
The value for `COc1ccc(-c2sc3cc4c(cc3c2C#CC2(O)CCCCC2)OCO4)cc1` was 12.5%; that for `CCOC(=O)C12CNC(=O)C(C(=O)OCC)(CNC1=O)C2` was 12.8%; that for `O=C(Nc1ccccc1)c1cccc(-c2nnc(-c3ccccc3)o2)c1` was -3.23%.
In the case of `Cc1ccc(NC(=S)NCCSc2ccc(Cl)cc2)cc1`, the “hERG current change (%, negative = inhibition) at 1uM” value is given as 11.1%.
The value for `OC1(c2ccc(Br)cc2)CCN(Cc2cccc(Br)c2)CC1` was 1.5%; that for `COC(=O)c1ccc(COc2ccccc2/C=N/NS(=O)(=O)c2ccc(C)cc2)cc1` was 10.5%.
For `Cc1c(O)ccc(/C=N/Nc2nc(-c3cccnc3)nc3ccccc23)c1O` the value was 13.7%; for `COc1ccccc1C(=O)Nc1nsc(-c2ccccc2)n1`, -4.4%; for `N#CC1=C(SCc2ccc(C#N)cc2)N=C(N)C(c2nc(-c3ccccc3)cs2)C12CCCCC2` (stereo not drawn), 10.1%.
In the case of `CCOc1ccc(CCNC(=O)c2ccc3c(=O)n4c(nc3c2)CCCCC4)cc1`, the “hERG current change (%, negative = inhibition) at 1uM” value stood at 15.9%.
For `CCc1ccc(NC(=S)Nc2cccc3cnccc23)cc1` the value was 2.22%; for `CCCCOc1ccccc1NC(=O)c1ccc(=O)[nH]c1`, 10.2%.
As to `CCc1nc(SCc2ccc(C(=O)OC)o2)n[nH]1`, the “hERG current change (%, negative = inhibition) at 1uM” value is 9.62%.
The value for `Cc1ccsc1C(=O)C1CCCN(Cc2ccccc2O)C1` (stereo not drawn) was -3.16%; that for `O=C1CC(c2ccccc2)CC(O)=C1C=NCc1ccccc1Cl` (stereo not drawn) was 6.73%.
Consider `CC(C)NC(=O)c1c(O)c2ccccc2[nH]c1=O`, for which the “hERG current change (%, negative = inhibition) at 1uM” value is recorded as 3.05%.
Consider `Cc1c(N2C(=O)/C(=C\c3cccc4ccccc34)SC2=S)c(=O)n(-c2ccccc2)n1C`, for which the “hERG current change (%, negative = inhibition) at 1uM” value stood at 2.18%.
The value for `CCN(CC)c1nc(Nc2ccccc2)nc(Oc2ccc(=O)n(C)n2)n1` was 6.81%; that for `COC(=O)c1ccccc1S(=O)(=O)NNC(=O)Nc1ccccc1` was 17.2%; that for `Cc1cc(NC(=O)c2ccccc2Cl)no1` was 16.5%.
The value for `CCCn1c(N)c(C(=O)CSc2ncc(C(F)(F)F)cc2Cl)c(=O)[nH]c1=O` was 15.7%.
The value for `COc1ccc(CCNC(=O)CCN2C(=O)[C@@H]3Cc4ccccc4CN3C2=O)cc1` was 6.69%; that for `COc1cc(-c2nnn(CC(=O)NC3CCS(=O)(=O)C3)n2)ccc1OCc1ccccc1` (stereo not drawn) was 12.4%.
With `COc1ccc(COCC(O)CN2CC(C)OC(C)C2)cc1OC.Cl` (stereo not drawn), the “hERG current change (%, negative = inhibition) at 1uM” value is recorded as 11.8%.
For `O=C(c1ccco1)N1CCN(C(=O)C2CC(c3ccccc3F)=NO2)CC1` (stereo not drawn) the value was 3.75%; for `COC(=O)c1c(NC(C)=O)sc(C(=O)Nc2ccccc2C)c1C`, 15.2%.
The value for `Cc1ccc(N=C(NO)c2cnccc2C(F)(F)F)c(C)c1` was 9.7%; that for `CCC(C)(C)NC(=O)C(c1ccncc1)N(Cc1ccc(C)cc1)C(=O)c1csnn1` (stereo not drawn) was 1.92%; that for `Cc1c(C(=O)Nc2ccc3c(c2)OCO3)sc2nc(-c3ccccc3)cn12` was 17.5%.
As for `Cn1cnnc1-c1cccc(NS(=O)(=O)c2ccc(N3CCCC3=O)cc2)c1`, the “hERG current change (%, negative = inhibition) at 1uM” value came out at 10.6%.
For `Cc1ccc(C)c(N(C(=O)c2csnn2)C(C(=O)NC2CCCCC2)c2ccccn2)c1` (stereo not drawn) the value was 8.25%; for `CC(=O)Nc1ccc(-c2nc3c(C)cccc3[nH]2)cc1`, 3.09%; for `CC1CCN(C2CC(=O)N(c3ccccc3)C2=O)CC1` (stereo not drawn), 19.2%.
For `N/C(=N\OC(=O)c1cc(Cl)ccc1Cl)c1ccccn1` the value was 8.11%; for `O=C(CCC1CCCC1)NNC(=O)c1cccc(Cl)c1`, 5.23%; for `CC(=O)c1cc2c(cc1NC(=O)CSc1nc3ccccc3[nH]1)OCO2`, -2.99%.
The value for `COc1ccc(N(CC(=O)NCc2ccc(C)cc2)S(=O)(=O)c2c(C)[nH]c(=O)[nH]c2=O)cc1` was 16%.
Consider `O=C1CNC(=O)/C1=C\c1ccc(O)cc1`, for which the “hERG current change (%, negative = inhibition) at 1uM” value worked out at 15.3%.
The value for `Cc1csc(NC(=O)CSc2nc(=O)cc(N)n2-c2ccc(F)cc2)n1` was 13.8%.
The value for `COC(=O)C1CCN(c2cc(=O)n(-c3ccc(OC)cc3)c(=O)[nH]2)CC1` was 9.72%; that for `CC1=CC(C)=Nc2ccc(C)cc2N1` was -4.11%.
On to `O=C1CCC(N2C(=O)c3ccccc3C2=O)C(=O)N1` (stereo not drawn), for which the “hERG current change (%, negative = inhibition) at 1uM” value worked out at 17.6%.
`COc1ccc2[nH]c(C(=O)O)c(NC(=O)c3cc(OC)c(OC)c(OC)c3)c2c1`: the “hERG current change (%, negative = inhibition) at 1uM” value was found to be 5.04%.
The value for `CCCCCC1NC(=O)NC1CCCCCC(=O)O` (stereo not drawn) was 12.4%.
The value for `Cc1ccc(N/C=C(/C#N)c2ccsc2)cc1` was 7.37%; that for `O=c1c2ccccc2c(=O)n(Cc2ccccc2)n1Cc1ccccc1` was 17.4%; that for `Cc1[nH]nc2c1C(C(C)C)C(C#N)=C(N)O2` (stereo not drawn) was 9.58%.
For `Cc1noc(C(=O)Nc2sc3c(c2C#N)CCC3)c1Cl` the value was 17.1%; for `Cc1nc(NCC2CCCO2)nc2c1C(=O)CC(C)(C)C2` (stereo not drawn), 19.1%; for `CCSc1nc(-c2ccc(OC)cc2)n(-c2nc3ccccc3s2)n1`, -4.99%.
On to `O=C(Nc1ccccc1N1CCOCC1)c1ccccc1NS(=O)(=O)c1ccc(F)cc1`, for which the “hERG current change (%, negative = inhibition) at 1uM” value was found to be 10.3%.
The value for `CCN(CC)S(=O)(=O)c1ccc(N2CCOCC2)c(NC(=O)c2ccc(F)cc2)c1` was -9.49%; that for `O=C(c1cc(-c2ccccc2O)on1)N1CCCC1` was 8.08%; that for `COc1ccc(/C=N/Nc2cc(C)nc(N3CCOCC3)n2)c(OC)c1` was 16.8%.
As for `COc1ccc(-c2nc(CS(=O)CC(=O)N3CCc4ccccc4C3)c(C)o2)cc1` (stereo not drawn), the “hERG current change (%, negative = inhibition) at 1uM” value is on record as -1.79%.
For `CC(C)CCNC(=O)COc1cccc2c1OC(C)(C)C2`, the “hERG current change (%, negative = inhibition) at 1uM” value is 11.5%.
As for `Cc1ccc(C)c(N(CC(=O)NN=C2CCCCCCC2)S(C)(=O)=O)c1`, the “hERG current change (%, negative = inhibition) at 1uM” value is listed as -0.335%.
The value for `COC(=O)c1ccc(NC(=O)CSCc2ccccc2C)cc1` was 1.13%; that for `COc1ccccc1NC(=O)C(CCS(C)(=O)=O)N1C(=O)c2ccccc2C1=O` (stereo not drawn) was 14.8%; that for `Fc1ccccc1NC(=S)NC1CCCC1` was 18.1%.
On to `CC(C)=CC(=O)Nc1nnc(-c2ccccc2)s1`, for which the “hERG current change (%, negative = inhibition) at 1uM” value turned out to be 0.187%.
The value for `CC12CCC(=O)N1C(C(=O)Nc1cccc3ccccc13)CS2` (stereo not drawn) was 11.8%; that for `C=CCn1c(SCC(=O)Nc2ccc3c(c2)OCO3)nnc1-c1ccccc1O` was 2.93%.
The value for `CCOC(=O)N1CCN(C(=O)CSc2nnc(COc3ccccc3)o2)CC1` was -1.13%; that for `O=C(c1ccccc1)c1ccc(C(=O)N2CCN(c3ccccc3Cl)CC2)cc1` was 6.65%.
The value for `COc1cccc(CN(Cc2cccnc2)S(=O)(=O)c2ccc(-n3cnnn3)c(C)c2)c1OC` was -5.85%.
Take `CCCC(CCC(=O)Nc1ccc(C(=O)OC)cc1)C(=O)O` (stereo not drawn): the “hERG current change (%, negative = inhibition) at 1uM” value amounted to 1.94%.
For `CCN(C(=O)COC(=O)CNS(=O)(=O)c1ccccc1)c1ccccc1` the value was 8.78%; for `CCN(CC(=O)Nc1cc(Cl)ccc1C)C(=O)Cc1sc(C)nc1-c1ccc(F)cc1`, -1.52%.
As for `COc1ccc(OC)c(C(=O)Cn2nnc3ccccc3c2=O)c1`, the “hERG current change (%, negative = inhibition) at 1uM” value was 10.6%.
The value for `Cc1cccc(-n2c(-c3ccco3)n[nH]c2=S)c1` was 14.1%.
